Some of the results follow.

Sequences and labels used below:
T1: UNK ZnF1-3 (human, UniProt Q9C0B0 31-174)
T1 sequence: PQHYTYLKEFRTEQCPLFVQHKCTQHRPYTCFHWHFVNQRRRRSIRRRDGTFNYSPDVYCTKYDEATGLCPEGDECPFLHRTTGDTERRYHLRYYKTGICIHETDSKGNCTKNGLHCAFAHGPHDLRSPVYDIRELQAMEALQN

B1: chr2:179515052:179515053:+_ENSMUSG00000000305_ENSMUST00000000314|mus_hu|mus_mus_mus_hu_False|58_58 (ssRNA)
RNA: GGGAGUUCUACAGUCCGACGAUCGCUGUCCCAUGCAGUCACCGUGAACGCCACCUGCUCGGAGGGGACCUGCAGCUCCCUAGUGGCGAAGACUGUCCCAUCUGCCCCAACUUUGAAGUCCAUGCUGUUGGUCUCAUAUUGUGUCAACAGAGGAUUGAGCAUCA
B2: chr3:33710417:33710418:+_ENSMUSG00000027677_ENSMUST00000099153|mus_mus|FALSE|FALSE (ssRNA)
RNA: GGGAGUUCUACAGUCCGACGAUCAGAAGUCACAGUUCUACUCAUGGAAAUUAAGACAAAGCUGUCCAGGGAACAUGCAAACUAUGGACAUAUUAAUGUAAAAGAAACUAAUGAUGACAGAACUGAGAAUCAAUUUAAAUUCUCCAACAGAGGAUUGAGCAUCA
B3: chr17:27085315:27085316:-_ENSG00000173065_ENST00000581407|hu_mus|motif|central (ssRNA)
RNA: GGGAGUUCUACAGUCCGACGAUCACUAAACCUAGAAGGGCAAUGUGUGUUGCCUGAGGAGAGCGUCCCGGCUCCCGGUCGGUACCCUGGGUGCUGAAUAUGAAGACUUCGACUAUCUGUGGGAUCAGGGGCUCGGGUGCCAGGCAACAGAGGAUUGAGCAUCA
B4: 6051737_6056632_1324_CDS_ENSMUSG00000015659_ENSMUST00000097432|mouse|control|control (ssRNA)
RNA: GGGAGUUCUACAGUCCGACGAUCAGUCAGAGCCCGCUGGCUGUCGUGCUGCCGCCAGGUUUUAAAUGCUGCUCCCAUUAGGCCAUGAAUAAAAAGGACAUCGGCUUUAAUGGGCUGACUUGUCCGACACUGGGGAUGCAGCACCAACAGAGGAUUGAGCAUCA
B5: chr4:63681588:63681589:-_ENSMUSG00000028364_ENSMUST00000107372|mus_mus|motif|central (ssRNA)
RNA: GGGAGUUCUACAGUCCGACGAUCGCUUGUGCCUGAUGAUUUUCUUGAGGACCCCACCUUCGGGAGUGAGGGCAAACAAAGCGGGAAAGAUGCCUGGCAGUAGCCAGGUCACGGCCCCCAUGGUGGAGGUUGGACUGGCUAGGUCAACAGAGGAUUGAGCAUCA
B6: 75440467_75440587_272_5pUTR_ENSMUSG00000029229_ENSMUST00000075452|mouse|control|control (ssRNA)
RNA: GGGAGUUCUACAGUCCGACGAUCGCCGUUGCCGCCGCCACCGCCGCCAUUACCGUGGGCAGGAACAACAACACAAUGUCAACAUCCGCCGGGGCCGCCACCCCCGCCAGCGCCGCCGCCCGCGCCAGCGCCGCCGCCGUCGCCCAACAGAGGAUUGAGCAUCA
B7: chr2:34708205:34708206:-_ENSMUSG00000026869_ENSMUST00000028225|mus_hu|FALSE|FALSE (ssRNA)
RNA: GGGAGUUCUACAGUCCGACGAUCUUCACUCAGGUAAGUUCUGAGCCUCAAAUAAUUUGGGUUCCCAAAGAUUUCUGCAAUUGUCUUGGAAUUGGCAAGUGCUUUCACUAGUUCAUAUUUGGCAUCCUUUGAAGCUUUGUCAUGCAACAGAGGAUUGAGCAUCA
B8: chr2:48026839:48026840:+_ENSG00000116062_ENST00000540021|hu_hu|hu_hu_hu_mus_False|78_108 (ssRNA)
RNA: GGGAGUUCUACAGUCCGACGAUCAUAGUGUGCCACUAGCGUCCUAAAUCUGGAACAAUGGCGAUCAUCCGAAAACUGGCCGAUGAAAAACUUGCCCAGUGAAGUGUCCACAAAGCAAACACCAUACACACGAGUGUGACCAGACAACAGAGGAUUGAGCAUCA
B9: chr2:232320318:232320319:-_ENSG00000115053_ENST00000322723|hu_hu|hu_hu_hu_mus_True|48_108 (ssRNA)
RNA: GGGAGUUCUACAGUCCGACGAUCACUGUUGAAGUCUACAAAACCAAACCCUUUGGAAGAACCAGUUUCCCGAUCAGUGACUAUUCUUGCCCGAACGGAGCCCUCAAAUGAUUCUUUUAAGGUCUCUUCAGUGGUAUCCUCAGACAACAGAGGAUUGAGCAUCA
B10: chr11:18536319:18536320:-_ENSG00000074319_ENST00000251968|perfect_dup|motif|central (ssRNA)
RNA: GGGAGUUCUACAGUCCGACGAUCUAGGUAGAUUUUCCCAUUUGCAUCCACAUGCUUUCCUGUUUUAAUAGUCAUUGAACGGGUAGGCUUAACAAAACAGAUAGGGGGGUUAUAUGGGUAUGUGUCCAGCAGCCACAGGCAUAUCAACAGAGGAUUGAGCAUCA
B11: 71481417_71481537_3246_3pUTR_ENSMUSG00000031328_ENSMUST00000144429|mouse|control|control (ssRNA)
RNA: GGGAGUUCUACAGUCCGACGAUCCUAGGCACUCAAGCUGUGCUUCACAGGGGCCUUCCACUGUCAGGCCCAGGCCACCAGUGCCAGCACCCUUUGUAUCAAUGGUGAAGCGGGCAGGGGAGCCUGCAUUGCCCCCCUGUAGCCCAACAGAGGAUUGAGCAUCA
B12: chr2:238002776:238002777:+_ENSG00000198612_ENST00000392008|hu_mus|FALSE|FALSE (ssRNA)
RNA: GGGAGUUCUACAGUCCGACGAUCGAUGGAGGUAUAAGCUUGAGAGACCAGGGCAAAGGCGCGUCUCCUUGUUGCAUCUCUAAGGGCUUCCAUGAUUGGCUGCACAGUCUCUGACCACUGGUGGGCGUUGAUGGUUGUAUAGAUCAACAGAGGAUUGAGCAUCA
B13: chr9:7206979:7206980:+_ENSMUSG00000032002_ENSMUST00000034499|mus_hu|FALSE|FALSE (ssRNA)
RNA: GGGAGUUCUACAGUCCGACGAUCUUAAGGCCUUUGUCACAAAUCUGAAUCUUUAUUGUUCUGAAAUAAAUGUUAUAAACAUAACUCAAAACAAAAACUUCAAUAUUCAGUCUAAGAAGAGGUGUGGCUCAAUGCCCAUCACAUCAACAGAGGAUUGAGCAUCA
B14: chr7:75932113:75932114:+_ENSG00000106211_ENST00000248553|hu_hu|hu_hu_hu_mus_False|28_78 (ssRNA)
RNA: GGGAGUUCUACAGUCCGACGAUCCUGCGACCACUCAUCGGGCAACCGGGGCACCCCGAAGGCCUGGUCGAAGAGGCGGCUGUGUGCAGGGUACCAGUCCCGGAAUGCCCAGCUGGGCGGGCUCCGCAGCAGCGAGAAGGGCACCAACAGAGGAUUGAGCAUCA

This test concerns the target T1, UNK ZnF1-3. In words: nsRBNS (natural sequence RNA bind-n-seq); RBNS binding buffer (assumed for nsRBNS): 25 mM Tris pH 7.5, 150 mM KCl, 3 mM MgCl2, 0.01% Triton X-100, 500 ug/ml BSA, 20 U/ml SUPERase-In, 4 C; UNK is unkempt and MSI1 is Musashi-1; names of the RNAs are library labels; protein concentration not given here; high values mean tight binding.
Molecule B1 showed a binding signal of 0.778 enrichment R.

In turn, B2 came in with a binding signal of 1.71 enrichment R.

The molecule B3 registered a binding signal of 0.828 enrichment R.

As to B4, the binding signal was determined as 0.362 enrichment R.

B5 gave a binding signal of 0.867 enrichment R.

Molecule B6 yielded a binding signal of 0.72 enrichment R.

Molecule B7 had a binding signal of 0.667 enrichment R.

Molecule B8 registered a binding signal of 1.22 enrichment R.

With B9, the binding signal was 0.456 enrichment R.

B10: the binding signal amounted to 0.798 enrichment R.

The molecule B11 came in with a binding signal of 0.711 enrichment R.

B12: the binding signal amounted to 1.37 enrichment R.

In turn, B13 came in with a binding signal of 0.771 enrichment R.

In turn, B14 showed a binding signal of 0.364 enrichment R.

Values taken from paper PMC12136788.
